This is one part of the list. These are noisy estimates, calculated here from bound and input reads.
target: T1, Pho4 (S. cerevisiae) (UniProt P07270); assay: relative binding free energy (BET-seq); higher = weaker binding; conditions: reference: library average
T1 sequence: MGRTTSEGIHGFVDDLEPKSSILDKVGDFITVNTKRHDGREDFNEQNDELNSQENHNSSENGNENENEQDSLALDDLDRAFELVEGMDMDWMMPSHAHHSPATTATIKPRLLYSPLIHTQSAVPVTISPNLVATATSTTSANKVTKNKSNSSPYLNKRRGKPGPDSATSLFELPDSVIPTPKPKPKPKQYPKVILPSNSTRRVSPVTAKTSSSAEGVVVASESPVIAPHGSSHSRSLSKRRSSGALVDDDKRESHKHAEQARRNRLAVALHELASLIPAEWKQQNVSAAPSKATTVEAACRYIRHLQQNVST

Row | Sequence | relative binding free energy
1 | GGGGACACGTGGGTGA | -0.06 kcal/mol
2 | CTTATCACGTGGGTGC | -0.03 kcal/mol
3 | GTTGGCACGTGAAGGC | 0.13 kcal/mol
4 | TCAGGCACGTGTGCGT | -0.13 kcal/mol
5 | TTGGACACGTGGGATA | -0.04 kcal/mol
6 | AAGAGCACGTGATGAT | 0.09 kcal/mol
7 | TTAATCACGTGTTATG | 0.15 kcal/mol
8 | GTCACCACGTGGGGGT | -0.2 kcal/mol
9 | TCGGGCACGTGGGTCG | -0.14 kcal/mol
10 | TAAGTCACGTGGTATT | 0.16 kcal/mol
11 | GATGACACGTGAGTTT | 0.36 kcal/mol
12 | AGGGTCACGTGATGGC | 0.31 kcal/mol
13 | CTGATCACGTGGGTGG | 0.03 kcal/mol
14 | GGCTCCACGTGGGGAG | 0.1 kcal/mol
15 | AGGTTCACGTGTGCTG | 0.26 kcal/mol
16 | GAGTACACGTGTATGG | 0.2 kcal/mol
17 | TTAACCACGTGAGGGT | 0.24 kcal/mol
18 | TTGTGCACGTGCGGGC | 0 kcal/mol
19 | TTAAACACGTGTGTTG | 0 kcal/mol
20 | AGGAGCACGTGGGGGC | -0.23 kcal/mol
21 | AAGAGCACGTGGGCGC | -0.1 kcal/mol
22 | GGTGTCACGTGATTCA | 0.22 kcal/mol
23 | GTAAACACGTGTGTAT | 0.02 kcal/mol
24 | GGTTCCACGTGGTGAT | 0.01 kcal/mol
25 | TATAGCACGTGGCGGG | -0.16 kcal/mol

Row | Sequence | relative binding free energy
26 | CATGTCACGTGACGTG | 0.29 kcal/mol
27 | TGCTACACGTGTTGAG | 0.13 kcal/mol
28 | TTAGTCACGTGAGGTC | 0.32 kcal/mol
29 | GATTGCACGTGTAAAT | 0.29 kcal/mol
30 | ACTTGCACGTGGGGTA | -0.07 kcal/mol
31 | TAGCGCACGTGATAGG | -0.03 kcal/mol
32 | CAGTTCACGTGATGTG | 0.37 kcal/mol
33 | GGTTGCACGTGAGTGT | 0.23 kcal/mol
34 | GATTGCACGTGAATAT | 0.27 kcal/mol
35 | ATGTACACGTGGGCAA | -0.09 kcal/mol
36 | ATAGACACGTGTTTAA | 0.08 kcal/mol
37 | GCATTCACGTGTGGGG | 0.34 kcal/mol
38 | GTTGGCACGTGTGGGC | 0.01 kcal/mol
39 | AAATGCACGTGGGGTA | -0.28 kcal/mol
40 | GGGGCCACGTGGTGTC | -0.26 kcal/mol
41 | TTTTTCACGTGGCGAC | 0.37 kcal/mol
42 | CGTGGCACGTGGTGAC | -0.12 kcal/mol
43 | AGTCGCACGTGAGGGA | 0.24 kcal/mol
44 | ATTTTCACGTGTCTTT | 0.17 kcal/mol
45 | GGCCTCACGTGGGGGA | 0.01 kcal/mol
46 | TGAGCCACGTGTGGTG | 0.02 kcal/mol
47 | AAGAGCACGTGCGGGT | -0.04 kcal/mol
48 | GTTGGCACGTGTTTGT | -0.07 kcal/mol
49 | CAGTGCACGTGGTTGG | -0.06 kcal/mol
50 | TTATCCACGTGGAGTG | 0 kcal/mol

Row | Sequence | relative binding free energy
51 | TTTGTCACGTGAATCA | 0.24 kcal/mol
52 | GGAGGCACGTGGTTGA | -0.13 kcal/mol
53 | TCGTGCACGTGGGGAA | -0.11 kcal/mol
54 | TGCTTCACGTGTGATG | 0.27 kcal/mol
55 | TTGTTCACGTGATACA | 0.38 kcal/mol
56 | GTGGACACGTGAGTAT | 0.18 kcal/mol
57 | CTGTTCACGTGGTAAA | 0.37 kcal/mol
58 | CGAGTCACGTGGATAG | 0.13 kcal/mol
59 | ATATTCACGTGGAGGG | 0.19 kcal/mol
60 | AGTTTCACGTGGCGCT | 0.12 kcal/mol
61 | TAGCTCACGTGTTGGG | 0.15 kcal/mol
62 | ATTAACACGTGACGGG | 0.07 kcal/mol
63 | ATGTGCACGTGTGGGC | 0.03 kcal/mol
64 | GGTAGCACGTGGGGCG | -0.14 kcal/mol
65 | AATGGCACGTGAGTCG | 0.09 kcal/mol
66 | GGACGCACGTGTGAGT | -0.01 kcal/mol
67 | CTTAACACGTGTAGGT | -0.15 kcal/mol
68 | ATATGCACGTGTAGGA | -0.05 kcal/mol
69 | TATATCACGTGTGTTC | 0.15 kcal/mol
70 | TATTGCACGTGGGGGT | -0.04 kcal/mol
71 | TTAGGCACGTGGGTCC | -0.22 kcal/mol
72 | TATAGCACGTGGTAGC | -0.1 kcal/mol
73 | GAGGTCACGTGGGAGA | -0.02 kcal/mol
74 | AATGGCACGTGTGGCC | 0 kcal/mol
75 | AGGCTCACGTGTAAAG | 0.37 kcal/mol

Row | Sequence | relative binding free energy
76 | CATGGCACGTGGCAGG | -0.2 kcal/mol
77 | TTGTCCACGTGAACGG | 0.28 kcal/mol
78 | ATTATCACGTGAGGTG | 0.32 kcal/mol
79 | GTAGACACGTGGTTAA | 0.1 kcal/mol
80 | TGGAGCACGTGTGATA | -0.02 kcal/mol
81 | TGCAACACGTGTGGGG | 0 kcal/mol
82 | TTGCACACGTGGTTAT | -0.02 kcal/mol
83 | ATTGCCACGTGGGGTC | -0.09 kcal/mol
84 | CGATTCACGTGGTTAG | 0.14 kcal/mol
85 | GATGTCACGTGGGAGA | 0.06 kcal/mol
86 | ATTAACACGTGTGCGT | -0.1 kcal/mol
87 | AGGTTCACGTGGATCA | 0.49 kcal/mol
88 | AGTTCCACGTGTAAGT | 0.25 kcal/mol
89 | TGCGTCACGTGGGGCT | -0.03 kcal/mol
90 | GTGTTCACGTGGTTGG | 0.29 kcal/mol
91 | GAGTGCACGTGAAGTA | 0.32 kcal/mol
92 | CTTAACACGTGTGATT | 0.12 kcal/mol
93 | AGCGACACGTGTTAGG | 0.08 kcal/mol
94 | TTGGTCACGTGATGTT | 0.18 kcal/mol
95 | TGGATCACGTGAAGTA | 0.3 kcal/mol
96 | ACTTTCACGTGTTATA | 0.4 kcal/mol
97 | CTATTCACGTGGGGCT | 0.07 kcal/mol
98 | AGAGTCACGTGGGTGA | -0.11 kcal/mol
99 | GGTGGCACGTGGCGCA | -0.3 kcal/mol
100 | AATGACACGTGGAGGC | 0.09 kcal/mol

Row | Sequence | relative binding free energy
101 | TGGTGCACGTGTTAAG | 0.07 kcal/mol
102 | CTAGTCACGTGTATGA | 0.14 kcal/mol
103 | TGATGCACGTGGTGAC | -0.08 kcal/mol
104 | ATGGGCACGTGTAGAC | 0 kcal/mol
105 | TCTGTCACGTGTGGTC | 0.02 kcal/mol
106 | ATGGGCACGTGCGGGG | -0.08 kcal/mol
107 | TAGTTCACGTGGAGCG | 0.26 kcal/mol
108 | TAGTGCACGTGGGTAG | -0.16 kcal/mol
109 | TTGGACACGTGGTAAT | 0.08 kcal/mol
110 | GTAGGCACGTGGCGGT | -0.13 kcal/mol
111 | GGATACACGTGGGATG | 0.03 kcal/mol
112 | CTGAGCACGTGTAAAT | 0.27 kcal/mol
113 | GGCATCACGTGGGGTT | 0.2 kcal/mol
114 | CATTTCACGTGTTATT | 0.2 kcal/mol
115 | GTGTCCACGTGTTTGA | 0 kcal/mol
116 | TTTGTCACGTGTTGTG | 0.13 kcal/mol
117 | CATTTCACGTGTTGGT | 0.23 kcal/mol
118 | AACGGCACGTGTGATA | 0.19 kcal/mol
119 | TAAATCACGTGTGAGT | 0.15 kcal/mol
120 | GGGTTCACGTGGGAGA | 0.39 kcal/mol
121 | ATTGGCACGTGCGTTC | -0.16 kcal/mol
122 | AAGGGCACGTGCTGAT | -0.07 kcal/mol
123 | TGTAGCACGTGTAGCT | -0.05 kcal/mol
124 | TGGTTCACGTGTTACA | 0.24 kcal/mol
125 | GGTCACACGTGTCGTG | 0.1 kcal/mol

Row | Sequence | relative binding free energy
126 | TGCGGCACGTGGGTAG | -0.25 kcal/mol
127 | GTTGACACGTGCCTGG | -0.03 kcal/mol
128 | CTGCTCACGTGGGTGT | -0.03 kcal/mol
129 | TAGGACACGTGTCTGT | 0.09 kcal/mol
130 | TGGGACACGTGTGAGA | 0.16 kcal/mol
131 | GGACTCACGTGATGGG | 0.2 kcal/mol
132 | GGGAGCACGTGGTCGT | -0.12 kcal/mol
133 | TAATACACGTGATGGT | 0.16 kcal/mol
134 | TAGGCCACGTGGGGGT | -0.31 kcal/mol
135 | TTGGTCACGTGTCGGC | 0.18 kcal/mol
136 | TTCGGCACGTGTAGAG | 0.03 kcal/mol
137 | TGTGTCACGTGGAGTG | 0.08 kcal/mol
138 | CGGGTCACGTGGTAGC | 0.16 kcal/mol
139 | TGGATCACGTGTGAAG | 0.15 kcal/mol
140 | GTGACCACGTGGGTGA | -0.09 kcal/mol
141 | GGCGGCACGTGCAGTG | -0.05 kcal/mol
142 | TGTTGCACGTGAATGA | 0.27 kcal/mol
143 | AGATCCACGTGGGGTT | -0.13 kcal/mol
144 | ATTTGCACGTGGTGGG | -0.03 kcal/mol
145 | TTCGTCACGTGCGTTG | 0.14 kcal/mol
146 | GGGGTCACGTGGATGT | 0.19 kcal/mol
